According to the supplement of paper PMC10126150:
Values marked as one replicate rest on one cluster of the flow cell; about a third of the high ones do not repeat.

What follows are sequences tested on ATP (assay: switch fluorescence ratio, 500 uM ATP over buffer (Cy3 cluster intensity, sum of 5 cycles each) (fold (ratio)); higher = stronger signal-on switching upon ATP binding; sequences stand for … in TCGTCGGCAGCGTCAGATGTGTATAAGAGACAGTTTTTTTTTTTTTTTTTTTTTTTTT…TC). Details: aptamer strand: ATP DNA aptamer (quencher-CACCTGGGGGAGTATTGCGGAGGAAGG + anchor), 100 nM annealed; ATP concentration: 500 uM; one replicate.
Procedure, shortened: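 Five buffer/ATP imaging cycles were run on Cy3-labelled switching-strand clusters on a modified Illumina MiSeq flow-cell, with NaOH stripping and re-annealing between cycles. In each cycle, clusters annealed to 100 nM quencher-labelled ATP aptamer were imaged in selection buffer, then after 15 min with 500 uM ATP at 22 °C. Per cluster, the fluorescence ratio is summed target-cycle over summed buffer-cycle Cy3 intensity, averaged per switch-domain sequence. Only clusters within 100-1000 RFU were kept.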
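Further: ATP exposure 15 min at 22 °C before imaging.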

Switch fluorescence ratio, 0.95:
TTAAATGAAG

Switch fluorescence ratio, 0.991:
TTATGTTT
TTCAGCT

Switch fluorescence ratio, 0.945:
TGTTTAGAA

Switch fluorescence ratio, 1.23:
TTCACCCTGG

Switch fluorescence ratio, 1.27:
TTACGGACCA

Switch fluorescence ratio, 1.38:
TTATCATTCC

Switch fluorescence ratio, 0.981:
TTATCACGTT

Switch fluorescence ratio, 1.15:
TTAGCGCATA

Switch fluorescence ratio, 0.977:
TTCAGTCAAA

Switch fluorescence ratio, 0.992:
TTAGCGAAGT
TTATGAGGT
TTCATTTTC

Switch fluorescence ratio, 0.978:
TTAGGCGTTG
TTCATCGCGC

Switch fluorescence ratio, 1.43:
TTACGGACA

Switch fluorescence ratio, 0.969:
TTATATTATA

Switch fluorescence ratio, 0.976:
TTACCATCTG
TTATCTAATT
TTCAAGGTGG

Switch fluorescence ratio, 1.16:
TTACACCCAT
TTACCAGGGA

Switch fluorescence ratio, 1.33:
TTACTTACGC

Switch fluorescence ratio, 0.998:
TTCATTACCA

Switch fluorescence ratio, 0.994:
TTATCGTGGC
TTATTACTCA

Switch fluorescence ratio, 0.995:
TTAATATCGC
TTAGGATCGG
TTAGTAATTA
TTATACAGTT
TTCACACGTG

Switch fluorescence ratio, 0.973:
TGTTTATAG
TTAGGAGCAG
TTAGTGGTC
TTATAGAATA
TTATCTTAAA
TTATGTAGCG

Switch fluorescence ratio, 1.11:
TTACCGTCCG
TTACGTCGTC

Switch fluorescence ratio, 1.05:
TGTTTGACCC
TTAAAGTTCG
TTAACTTTTC
TTAAGTAGCC
TTACAACTAA
TTACAATCCC
TTACATAATG
TTAGCTTCAG
TTATCTGTT

Switch fluorescence ratio, 0.997:
TTAGATTTTC

Switch fluorescence ratio, 1.03:
TTAAGGTTGA
TTAATCCAAG
TTAATCTGCA
TTACAGAAGA
TTAGCTTATA
TTAGGACAT
TTAGTACGGC
TTAGTGGACA
TTCAGCCAAC

Switch fluorescence ratio, 1.04:
TGTTTGCGGG
TTAAGTAGCA
TTACAGTGCT
TTACCCGGAG
TTACTATG
TTAGGTTAA
TTATTTACGT
TTCAGCGACA
TTCAGTAGTT
TTCATAATTG

Switch fluorescence ratio, 0.962:
TTATCAAGCC

Switch fluorescence ratio, 1.22:
TTACGTTA

Switch fluorescence ratio, 2.01:
TTACCGCGAC

Switch fluorescence ratio, 1.1:
TTACCGCCGC
TTAGAATTTC
TTATCACCCT

Switch fluorescence ratio, 0.99:
TGTTTACCG
TTCATCACTT

Switch fluorescence ratio, 0.979:
TTAAAGAGGA
TTCATGTTCT

Switch fluorescence ratio, 0.996:
TTCAACATCA

Switch fluorescence ratio, 0.98:
TTAGTAAGAT
TTATAATGCG
TTATGTGCTT

Switch fluorescence ratio, 0.974:
TGTTTTTGAC
TTCAGGCTAA

Switch fluorescence ratio, 0.985:
TTAGGAAGGA
TTAGGGGTTC

Switch fluorescence ratio, 1.26:
TTACTGCCAC

Switch fluorescence ratio, 2.44:
TTAATACTCG

Switch fluorescence ratio, 0.983:
TGTTTGAGA
TTACAGTGCG

Switch fluorescence ratio, 1.5:
TTAAACGTAT

Switch fluorescence ratio, 1.21:
TTAAAGGTGC

Switch fluorescence ratio, 0.968:
TTATTGA
TTCCATAACG

Switch fluorescence ratio, 2.66:
TTAAGGCAAT

Switch fluorescence ratio, 0.941:
TTACTAGGGC

Switch fluorescence ratio, 1:
TGTTTTCGCG
TTAAACCAGA
TTAAATCGGG
TTACACAAGA
TTACTTTTG
TTAGAGAGTT
TTAGCTGGCG
TTAGGAAATA
TTAGGCCCTA
TTAGGCGATA
TTAGGGTCA
TTATAGTAGG
TTATATTCGA
TTATGCTGTG
TTCACAGCGT
TTCACGGATA
TTCAGAAAAG

Switch fluorescence ratio, 1.01:
TGTTTGCATG
TTAAACTAAG
TTACAGAAGG
TTACATGGTT
TTACCGTGGT
TTACGGGTCT
TTACTCAGTT
TTACTTAATG
TTAGAACATT
TTAGGCGCGA
TTAGGTCATA
TTATAGAAGT
TTATAGTCAC
TTATGAAGCG
TTATGATA
TTATTTCCA
TTCAACTGTG
TTCACGAGAA
TTCAGGATGC

Switch fluorescence ratio, 1.13:
TTCAACGCTG

Switch fluorescence ratio, 0.988:
TTACCTTTTA
TTATTCAGGC

Switch fluorescence ratio, 1.07:
TGTTTCCTCG
TTAACGAGTA
TTAACTTCCA
TTAATCCGAG
TTACGCCTC
TTATAACTAC

Switch fluorescence ratio, 0.924:
TTATCGCCGG

Switch fluorescence ratio, 0.984:
TGTTTTGCTG
TTAAGGTTTC
TTAGTAACAT
TTATATCATG
TTATGTGAAG

Switch fluorescence ratio, 0.987:
TTAGAACTAG
TTATTGGATG

Switch fluorescence ratio, 1.08:
TTATTGTACG

Switch fluorescence ratio, 1.02:
TGTTGTAGG
TGTTTACGC
TTAATGCAAG
TTAGACTGG
TTAGAGCATC
TTAGATGATT
TTAGATTAGC
TTAGATTCGC
TTAGCGAATG
TTAGCTAGCA
TTAGGCGAA
TTAGGTACT
TTAGTTCCCG
TTATAGATTT
TTATCGGCCC
TTATCTATAA
TTATCTCGC
TTATGGGCAT
TTCAGGC
TTCAGGTCCA
TTCAGTGAAG
TTCATTTTAC

Switch fluorescence ratio, 0.999:
TTAGAATTCG
TTCAATGCG

Switch fluorescence ratio, 0.986:
TTAGAGTGG
TTAGTGGCCT
TTAGTTGTG
TTATATTAAT
TTCATGGCAT

Switch fluorescence ratio, 1.09:
TTACAGACTT
TTATGCAGGC

Switch fluorescence ratio, 0.993:
TTACGAGTTT
TTAGATGTCA
TTATGGTAGT
TTATTGTGAG

Switch fluorescence ratio, 0.932:
TTATCGGCTC
TTATTTAAG

Switch fluorescence ratio, 1.14:
TTAGTTACC
TTATGCATTC

Switch fluorescence ratio, 1.25:
TTCAAATTAC

Switch fluorescence ratio, 1.06:
TTACGCAGGA
TTACTTCAAC
TTATACGGG
TTATCGGGTC
TTATGCCCCG
TTCAAATTCC

Switch fluorescence ratio, 1.32:
TTAACATACT
TTACTCTAC

Switch fluorescence ratio, 0.982:
TTCAAGTTGA

Switch fluorescence ratio, 0.989:
TTACTAAATA

Switch fluorescence ratio, 0.942:
TTCAGTTAGG
